# ± gives the standard deviation of the averaged measurements. Some of the results follow.
# Tested on: PfAP2-G AP2 domain (GST-tagged)
# Assay: gcPBM binding intensity (ln(normalized median fluorescence intensity)); higher = stronger DNA binding
# Outline: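 The highest Masliner-normalised natural-log median intensity across replicate spots of either probe orientation is reported as binding intensity. GST-tagged P. falciparum DNA-binding domains expressed in E. coli were applied for 1 h to an Agilent 4 × 180k array of primer-extended double-stranded 36-bp intergenic genomic probes plus negative controls, and bound protein was detected with Alexa488 anti-GST antibody and scanned at 488 nm.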
row,Sequence,gcPBM binding intensity (ln)
1,TACTATAAAATGGAATGTACACATAAATATATCTAA [XGTACX_site6137],11.3 ± 0.72
2,AAATCGTGTACATTGACACACATAATTTTTTTTATA [CACACA_site2463],11.3 ± 0.83
3,CACATACACATACACATACACACGCATAGAAACATA [CACACA_site2136],10.5 ± 0.28
4,TTGTATAAATATGTATGTATATAATATATGTAAAGA [TGCATGCA_negctrl_site93],10.02 ± 0.092
5,TATTAATTTTTATTATGTACATAAATAATTTATATT [XGTACX_site5456],11.3 ± 0.74
6,AATATATTTATATAGTGTACATTTTTTATATATGTA [XGTACX_site8142],11.3 ± 0.78
7,ATATAACGAATAATTACACACTATAAAAAAAGATCT [CACACA_site2862],9.82 ± 0.057
8,TATAACCGAATGTGTACACAAAATAATGTTATATAT [CACACA_site5627],11.6 ± 0.88
9,ATAATACGAATTTGTAGTACATTTATAATAACATGA [XGTACX_site2614],11.4 ± 0.83
10,AAGCATATTATAAACACACACTGTATAAAGATATAT [CACACA_site6277],9.91
11,AAGTATAACCTTTATAATAATGACATGACCGATTTT [CACACA_negctrl_site395],10.07 ± 0.028
12,ACCCATAAGATAATTACACACAATACATCCCTATAT [CACACA_site5262],10 ± 0.028
13,TTTTTTTTTTTTTGTTGTACATTAAATATATTATTA [XGTACX_site7254],11.2 ± 0.86
14,TAAAAAACTTCGTGTTCACACATGTACTATATTATT [CACACA_site4796],11.2 ± 0.89
15,AGGACTAATATTTGAACACACATATAACATATACAT [CACACA_site7803],9.95 ± 0.085
16,TTTTAATAACCAATCCGTACATATAATCTTTATATT [XGTACX_site536],11 ± 0.61
17,TGGAAAAATAGGCACACACACATATATACATATATA [CACACA_site1297],10.2 ± 0.23
18,TAAAAGTTATAAGAGTGTACGTATATTTATATATCA [XGTACX_site2972],11.5 ± 1
19,TTATTATATTCTCCTTCACACACAAAAATATTTCAT [CACACA_site8738],10.2 ± 0.14
20,TGAAAAATTACAAAAATAATAAAATGAAATAATAAA [GTGCAC_negctrl_site53],9.81 ± 0.085
21,TACTGTTTAAAATATAAACACACATTGTTTGCTTTA [CACACA_site8358],9.61 ± 0.38
22,AAAAGGAAAATTTTCTTAGTAACTGCATTAAGAGAT [GTGCAC_negctrl_site675],9.85 ± 0.2
23,CTTTTAAATTATTTTTGTACATAATTATATATATAT [XGTACX_site4128],10.9 ± 0.49

row,Sequence,gcPBM binding intensity (ln)
1,AACTATAAATATAAATGTACACATATGTAATATATA [XGTACX_site6085],11.3 ± 0.64
2,TTTATTATTTTTTGTAGTACTTTATATAAAAGTTCT [XGTACX_site4494],11.3 ± 0.77
3,ATACACTTTTATATATCAATACATTATGTATTAAGT [CACACA_negctrl_site421],10 ± 0.11
4,TATTTACATGTAAAAGGTACACACATTATATATACA [XGTACX_site2157],11.2 ± 0.57
5,TAAAATAAAACAAACACACACACACCCCCACAAAAA [CACACA_site3850],11.3 ± 0.7
6,ATGTATATATATATATGTACTAATTAGTAATTTACG [XGTACX_site6276],11 ± 0.62
7,AAAACAAACCCATTTACACACATAAATAAATCAATT [CACACA_site6126],9.97 ± 0.028
8,TCCTTTTTTTTGTAATGTACTTAGTTTGGTTATATG [XGTACX_site8208],11 ± 0.55
9,CCTCTTTATTTTAATTGTACATTTTTGTAGGTTTTT [XGTACX_site7130],10.9 ± 0.61
10,TTTTTATTACTTCTCTGTACTCAGGAAAATAAATAT [XGTACX_site2092],11.4 ± 0.99
11,TGAATGTAAGAAAATACACACTAGTATAGTAACACC [CACACA_site5131],10.2 ± 0.52
12,AAATATATAATACATATGTAATATGCATATATATAT [GTGCAC_negctrl_site450],9.68 ± 0.26
13,TTGATTATAATTAGTACACACAAAATACATGCGGGG [CACACA_site2277],11.6 ± 0.9
14,AATATTCATATGCAGGTGCATTAATTTTTATTAATT,9.795 ± 0.078
15,TTCCAACCATAGTATTCACACATTGTTTTATTCCAT [CACACA_site4927],10.03 ± 0.049
16,TGTTTTTTATTTAATTGTACGAATTAAAAAAAATAA [XGTACX_site3009],11 ± 0.82
17,TACATACATACATACACACATACATATATATATATA [CACACA_site1387],10.5 ± 0.35
18,TCTTTTATTAGTAAAAGTACTTATATAAATATTATA [XGTACX_site5099],11.2 ± 0.69
19,ATAATATAATAAACGTGTACACAATTAAATTATTAT [XGTACX_site3491],11.8 ± 0.76
20,TTTCGTAAACAAATTTGTACGTACAAATTTATAAAT [XGTACX_site8175],11.7 ± 1.1
21,TTTTTACTAATAAGATGTACATATATCCTAAGCATA [XGTACX_site251],11.2 ± 0.67
22,TAGGGATTATACCACACACACATACCCATAAATATA [CACACA_site5719],10.3 ± 0.22
23,ATAGACAGCGCACAAACACACAAACACGCACGCACA [CACACA_site6349],10.3 ± 0.26

row,Sequence,gcPBM binding intensity (ln)
1,AATACTCTATTTTATAGTACATATATTATTAATCAC [XGTACX_site6622],11.1 ± 0.68
2,GAAAAAAAAAAAAATACACACAAATTGGTATATAAT [CACACA_site4369],9.805 ± 0.092
3,TATCAAATCCAAAGGGGTACATTTTGTTGTCCTAAT [XGTACX_site5575],11.5 ± 0.95
4,TAGCTCGTTCGGAGCACACACATATAAATAAATATA [CACACA_site7002],10.1 ± 0.16
5,AAAATTTATGTAAAATGTACATACATAAATAAAGAT [XGTACX_site4339],11.2 ± 0.64
6,TTTGTAAAATAATATCTTTCATGTCCTTACTAATTA [GTGCAC_negctrl_site145],10.5 ± 0.42
7,TATTTATTTAAAGGCACACATATTTTTATACTTTCT [CACACA_site3163],10.2 ± 0.15
8,ATTATATATATATATAAACACACATAAATATAAATA [CACACA_site8291],10 ± 0.28
9,TATTAACAAAATTTTTAACACACAAAAAAAAAAAAA [CACACA_site8542],9.65 ± 0.31
10,CATAATATATTTTATGCATGCAAAGCAACCTTTTGA [TGCATGCA_site715],9.89 ± 0.057
11,TTTTTTGTTATATTTGTGCGCAAAAATTGCTGCTTG,10.4 ± 0.31
12,ATAAATATATTTCACGCACACACACCCCAAATAAAT [CACACA_site9272],10.6 ± 0.34
13,TAAGGAAAAAATTATAGTACATAATAAATGTATATA [XGTACX_site8328],10.9 ± 0.49
14,TTTTTATATATATTCTCACACACTTTTTATTTTAAC [CACACA_site657],9.96
15,CAAATTTTTTATTAAACACACAAACATATATTTATA [CACACA_site6992],9.85 ± 0.11
16,AAAAAAGAAAAGAAATCATGAAAGAATCAAATAAAG [CACACA_negctrl_site1771],9.59 ± 0.11
17,AATTTTTTTTTTTTTTTTTCTTTTGTAATAAACCAT [XGTACX_negctrl_site334],10.1 ± 0.43
18,AAAAAAAAAAAACACACACACACACCGAAATATATA [CACACA_site4261],10 ± 0.13
19,TTCAGCATAAACACTTGTACATATATACTAAAAATT [XGTACX_site7272],11 ± 0.52
20,TTTATTTTATCTAAAAGTACTTAAATTAGTGTATTT [XGTACX_site5696],11.2 ± 0.85
21,TTACGAAAAAACAAGAGTACATGATGTTATAAAATA [XGTACX_site1412],11.3 ± 0.75
22,ATATATATATATTATACACACGCCGAAAAAATAAAA [CACACA_site1551],10.1 ± 0.18
23,TCATACATTTTCAGCCTGCACTTATATTTAATAATA [GTGCAC_site9863],10.2 ± 0.18

row,Sequence,gcPBM binding intensity (ln)
1,TATATATATAAATACACACACACACCGATATATATA [CACACA_site5408],10.1 ± 0.2
2,CGTTGTAGGGAATGTAGTACAGTTATTATTTTATTA [XGTACX_site2429],11.6 ± 0.98
3,ATTTCCCCAACGTGGGTGCATATATTTATGTGTGAA [GTGCAC_site9439],10.5 ± 0.49
4,TAATGTATAATTAATCGTACATTAGATTGTTGTGTT [XGTACX_site52],11 ± 0.71
5,ATATATATATATGTGTGTACTTAAAAATATAATGCA [XGTACX_site7753],11.5 ± 0.91
6,ATTATATTTTTAAGTACACACATATAAATAAATATA [CACACA_site7682],11.4 ± 1
7,TATTAATTATTTTACTGTACTAATAATACTTTTATT [XGTACX_site2179],11.4 ± 0.8
8,ATTATGTGAGGTAACTAAATATGTACGTAACGAAGA [CACACA_negctrl_site1400],11.5 ± 0.97
9,ATTTTAAATTAAATTACACACTACGAATAATATATT [CACACA_site4016],9.88
10,ATATTTCTGTCAAGCACACATAATATTAATATATGT [CACACA_site318],10.2 ± 0.2
11,AAATGTGAACTATAATAATTTCAACGTCTGATATAA [TGCATGCA_negctrl_site440],9.895 ± 0.049
12,AAATTTATAAAGAACACACACATATATATATATATA [CACACA_site48],10.1 ± 0.4
13,CAAAACCTAATATGTACACACATATACATCACACTT [CACACA_site7480],11.3 ± 0.86
14,TTTCTTTCGAATGCTTCACACATTACTCTTAAATAG [CACACA_site5265],9.9 ± 0.11
15,ATATATATATATATAGTGCACATTTATATAATTATT,10.3 ± 0.42
16,ATTTTGTTATTATATATATATATATATATATATATA [XGTACX_negctrl_site590],9.89 ± 0.49
17,ACATATAAAATATTCACACACAAGTTATAGTTCTCG [CACACA_site3626],9.84 ± 0.042
18,AATAAATTATATATCACACATATATATTTATATTTA [CACACA_site5964],9.79 ± 0.2
19,ACATTAAAAAATTGTTTGCACTATATAAAATATTAA [GTGCAC_site9728],9.99 ± 0.2
20,AATATAAGAAAAATAACACACACATAAACATATATA [CACACA_site8899],9.955 ± 0.078

# From the supplement of paper PMC11417369
